According to PubChem BioAssay AID488969 (Vanderbilt High Throughput Screening Facility, 2010):
Over roughly 110,000 compounds, “z-score” has its median near -0.1; the highest 2% begin near 2. The list shows a part of the results. Active and inactive are the calls of the source.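 The calls were made as follows: active = z-score in the third read window above 3 or below -3; inactive = the rest.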

Biological target: Metabotropic glutamate receptor 8 (Rattus norvegicus) (UniProt P70579)
Assay: rat mGluR8 modulators via GIRK flux, primary screen, cell-based, thallium flux, HTS (AID 488969)
Conditions: HEK293 rat mGluR8, GIRK (G protein-gated inwardly rectifying potassium channel) thallium flux, FluoZin2; at 10 µM; stronger effect = higher value; submaximal glutamate (EC20) added with thallium

Sequence of UniProt P70579 (P70579 whole entry, looked up): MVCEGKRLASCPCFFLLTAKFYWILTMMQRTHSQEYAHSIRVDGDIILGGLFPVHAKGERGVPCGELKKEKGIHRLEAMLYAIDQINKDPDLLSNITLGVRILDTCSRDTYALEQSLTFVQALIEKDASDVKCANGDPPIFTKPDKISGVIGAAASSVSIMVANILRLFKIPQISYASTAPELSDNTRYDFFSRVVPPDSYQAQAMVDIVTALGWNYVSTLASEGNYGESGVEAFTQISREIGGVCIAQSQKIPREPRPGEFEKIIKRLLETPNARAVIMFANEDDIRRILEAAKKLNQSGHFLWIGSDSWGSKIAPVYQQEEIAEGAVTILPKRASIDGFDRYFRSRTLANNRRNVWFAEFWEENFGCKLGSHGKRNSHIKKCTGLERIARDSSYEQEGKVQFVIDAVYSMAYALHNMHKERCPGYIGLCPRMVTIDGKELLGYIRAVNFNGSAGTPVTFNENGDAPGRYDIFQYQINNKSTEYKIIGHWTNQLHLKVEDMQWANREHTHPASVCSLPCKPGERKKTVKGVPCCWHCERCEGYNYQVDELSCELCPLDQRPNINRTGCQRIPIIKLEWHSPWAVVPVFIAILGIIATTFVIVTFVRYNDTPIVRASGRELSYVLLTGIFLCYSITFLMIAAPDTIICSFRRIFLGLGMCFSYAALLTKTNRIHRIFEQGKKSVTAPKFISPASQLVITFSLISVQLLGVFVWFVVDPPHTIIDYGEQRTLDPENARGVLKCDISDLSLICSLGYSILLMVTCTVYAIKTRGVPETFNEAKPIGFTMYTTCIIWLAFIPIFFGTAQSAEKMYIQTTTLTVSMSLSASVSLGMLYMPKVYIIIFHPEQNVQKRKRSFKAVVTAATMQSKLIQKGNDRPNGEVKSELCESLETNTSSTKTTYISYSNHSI

SMILES | z-score
Cc1ccc(S(=O)(=O)N2CCN(S(C)(=O)=O)CC2)cc1 | 0.875
CCOC(=O)N1CCC(N2C(=O)c3ccccc3C2Nc2cc(C(=O)OC)cc(C(=O)OC)c2)CC1 (stereo unspecified) | -1.36
O=C1c2ccccc2-c2c1cccc2C(=O)N1CCN(C(=O)c2ccco2)CC1 | -0.641
CC(=O)C1=C(O)C(=O)N(c2nccs2)C1c1ccccc1 (stereo unspecified) | -2
Cc1ccccc1C(=O)Nc1ccccc1C(=O)NCc1ccccc1 | -0.529
CCCc1nnc(NC(=O)CN2C(=O)c3ccccc3S2(=O)=O)s1 | 1
COc1ccc(-c2csc(N(CCc3ccccc3)C(=O)COc3ccccc3)n2)cc1 | 0.243
COc1ccc(CNC(=O)CN(CCC(C)C)S(=O)(=O)c2ccc3c(c2)OCCO3)cc1 | 0.0312
CCOC(=O)C1C2C=CC3(CN(c4cccc(Cl)c4)C(=O)C13)O2 (stereo unspecified) | -0.568
CC(C)(C)N(NC(=O)c1ccccc1)C(=O)c1ccc(C(=O)N(NC(=O)c2ccccc2)C(C)(C)C)cc1 | -0.0679
FC(F)Oc1ccccc1NC(=S)NCc1ccco1 | 0.0626
CC1CN=C(N(C(=O)Nc2ccccc2)c2ccc(S(=O)(=O)N3CCOCC3)cc2)S1 (stereo unspecified) | 0.945
Cc1nc2scc(-c3ccco3)c2c(=O)n1/N=C/N(C)C | 0.326
Nc1c(C(=O)c2ccccc2)sc(Nc2ccccc2)c1S(=O)(=O)c1ccccc1 | 0.456
C=CCn1c(=N)c(C(=O)OCC)cc2c(=O)n3cccc(C)c3nc21 | -0.017
COc1ccc(C(=O)NN2CC(O)=C(c3nc4ccccc4n3C)C2=N)cc1OC | -0.703
Cc1ccc(C(=O)NC(=S)Nc2ccc3c(c2)OCCO3)c(C)c1 | 2.7
CCOC(=O)C1=C(N)N(c2ccc(N3CCCCC3)cc2)C(=O)C1 | 0.709
O=C(CN1C(=O)NC2(CCCC2)C1=O)Nc1ccccc1F | 0.0198
c1ccc(-n2nnnc2NCCCN2CCOCC2)cc1 | 0.0335
Cc1nnc2n(c1=O)N=C(c1ccc(Cl)cc1)CS2 | 0.0699
Cc1ccc(NC(=S)NCCCN2CCOCC2)cc1 | -0.207

SMILES | z-score
CC1Cc2ccccc2N1C(=O)CN1C(=O)COc2ccccc21 (stereo unspecified) | 0.564
Cc1ccc(S(=O)(=O)N2CCC(C(=O)NCC3CCCO3)CC2)cc1 (stereo unspecified) | 0.0152
Cc1nc(SCC(=O)NCc2ccco2)c2c(C)c(C)sc2n1 | -0.0392
Cc1cc(C2=NNC(=NCc3ccccc3)SC2)c(C)n1-c1c(C)n(C)n(-c2ccccc2)c1=O | -0.278
CCOc1ccc(/C(CC)=N/NC(=O)C2(C)CC2(Br)Br)cc1 (stereo unspecified) | 0.538
COC(=O)c1sccc1NC(=O)c1ccco1 | -0.499
COc1ccc(N2CCN(C(c3cccs3)c3nnnn3C3CCCC3)CC2)cc1 (stereo unspecified) | -0.462
CN(CC(=O)Nc1ccc(Cl)cc1)CC(=O)Nc1ccc(F)c(F)c1F | -0.0456
COc1ccccc1N(CC(=O)NCCSc1ccccc1)S(C)(=O)=O | -0.0727
CC(=O)CC(=O)Nc1ccn(-c2ccccc2)n1 | -0.208
CCN(CC)S(=O)(=O)c1ccc2[nH]cc(C(=O)NCCc3ccccc3)c(=O)c2c1 | -0.113
COc1ccc(C2CC(=O)C3=C(C2)Nc2ncnn2C3c2ccccc2C)cc1 (stereo unspecified) | -0.877
CCN(CC)c1ccc(NC(=O)C2CCCN(S(=O)(=O)c3cccnc3)C2)c(C)c1 (stereo unspecified) | -0.605
COc1cccc2cc(-c3nc(-c4cccs4)cs3)c(=O)oc12 | -0.744
C/C(=N\NS(=O)(=O)c1ccc(C)c([N+](=O)[O-])c1)c1cc2ccccc2o1 | -0.245
Cc1cccc(-c2nc(CN3CCCC(C(=O)NC4CCCCCC4)C3)c(C)o2)c1 (stereo unspecified) | 1.13
Cc1noc(C)c1CSc1ccccc1C(=O)N1CCN(c2ccccc2)CC1 | -0.323
Cc1cc2ccccc2c(=O)n1CC(=O)NCC(=O)N1CCCC(C)C1 (stereo unspecified) | 0.0756
COCCNC(=O)c1cccc(Nc2nc(-c3ccccc3)c3cc(Cl)ccc3n2)c1 | -1.26
Cc1ccccc1OCC(=O)OCC(=O)Nc1cc(C(F)(F)F)ccc1N1CCOCC1 | -0.183
CCC(CC)c1nnc(NC(=O)c2c(-c3ccccc3)noc2C)s1 | -0.156
CC1(C)OC(=O)N(c2ccccc2)C12C=Cc1cc(Br)ccc1O2 (stereo unspecified) | -0.751

SMILES | z-score
O=C(NCc1cccnc1)C1CC(=O)N(C2CCCCC2)C1 (stereo unspecified) | 0.0767
Cc1ccc(S(=O)(=O)N(C)C)cc1NC(=O)C1CCCC1 | -0.00397
COC(=O)C1C(=O)C2=C(CC1C)NC(C)=C(C(=O)OCc1ccc(OC)cc1)C2c1ccc(C)o1 (stereo unspecified) | -0.77
COc1ccc(-c2cc(C(F)(F)F)nc(NCc3cccnc3)n2)cc1 | -0.571
Cc1ccc(C)c(S(=O)(=O)Nc2ccccc2C(=O)Nc2ccc(S(=O)(=O)Nc3ncccn3)cc2)c1 | 0.861
Cc1ccc2c(c1)N(CC(=O)c1cccc(Cl)c1)C(=O)C(C)O2 (stereo unspecified) | -0.211
COc1ccccc1N1CCN(C2CCN(C(=O)c3cccc(F)c3)CC2)CC1 | -0.254
COc1cc(Cl)c(S(=O)(=O)NCCCN2CCOCC2)cc1Cl | -0.403
Cc1ccc2cc(CN(CC(C)C)C(=O)C3CCCO3)c(=O)[nH]c2c1 (stereo unspecified) | -0.106
CN1CCN(C(=S)SCC(=O)Nc2nc(-c3ccccc3)c(-c3ccccc3)o2)CC1 | -0.0527
COC(=O)c1ccc(NS(=O)(=O)c2cc(C)ccc2OC)cc1 | 0.111
Cc1cccc(NC(=O)c2cccc(Cn3cc(Br)c([N+](=O)[O-])n3)c2)c1C | -0.106
COc1ccc(-c2nn(-c3ccccc3)cc2/C=N/NC(=O)c2ccc(Br)o2)cc1 | -0.211
COc1cc(C(=O)N/N=c2/sc3ccccc3n2C)cc(OC)c1OC | 0.462
CCN(CC)C(=O)CSc1nc2ccccc2c(=O)n1-c1ccccc1OC | active: -3.48
CCOC(=O)c1nc(Nc2ccc(C(=O)OC)cc2)c2ccccc2n1 | -0.481
CSCC[C@H](NC(=O)NCCc1ccc(F)cc1)C(=O)O | -0.317
CC(=O)Nc1ccc(NC(=O)COc2ccccc2C(=O)Nc2cccc(Cl)c2Cl)cc1 | 0.28
Cc1ccccc1Nc1nc2nonc2nc1N1CCOCC1 | active: 6.03
N#C/C=C(/N)c1ccc(Br)cc1 | -0.0152
CC(=O)CSc1nc2ccccc2o1 | -0.0278
COc1cc(/C=C(/C#N)c2nc3ccccc3[nH]2)ccc1OCc1ccc(C(=O)O)o1 | -0.222

SMILES | z-score
CC(Cc1cccs1)NC(=S)Nc1ccc(Cl)cc1 (stereo unspecified) | 0.996
COc1ccc(C(=O)Nc2ccc(S(=O)(=O)Nc3cc(C)nc(C)n3)cc2)c(OC)c1 | 0.0186
O=C(c1ccccc1)N1CCCC(c2nc3c(nnn3Cc3ccccc3)c(=O)[nH]2)C1 (stereo unspecified) | -0.398
O=C(Cn1nc(Cl)nc1Cl)c1cc2ccccc2oc1=O | -0.931
CCc1ccccc1NC(=S)NCc1cccn1C | 0.000642
CCOc1cc(-c2c(C#N)c(N)nc3c2CCc2ccccc2-3)ccc1O | -0.215
C=C(C)CSc1nnc(CCNC(=O)OC(C)(C)C)o1 | 2.19
O=c1[nH]c(CN2CCc3ccccc32)nc2scc(-c3cccs3)c12 | 0.311
O=c1[nH]c(CSc2ccccn2)nc2c1cnn2-c1ccccc1 | 0.0602
C=CCn1c(SCCN2C(=O)c3ccccc3C2=O)nc2scc(-c3ccccc3)c2c1=O | -1.56
Cc1ccc(NC(=S)NCc2cccs2)c(C)c1 | -0.449
CC(C)CC(=O)NCCc1ccncc1 | -0.228
Cc1cc(C(=O)COC(=O)c2n[nH]c3ccccc23)c(C)n1C | -0.0875
CCOC(=O)c1nnc(-c2ccccc2)nc1Oc1ccccc1Cl | -0.346
C=CCn1c(=O)c2ccccc2n2c(Sc3nnnn3-c3ccccc3)nnc12 | 0.266
Cc1ccc(Cn2nnc3c(=O)n(Cc4cccc(C)c4)cnc32)cc1 | -0.357
Cc1cc(C)c(NC(=O)CS(=O)CC(=O)N2CCN(c3ccccc3)CC2)c(C)c1 (stereo unspecified) | 0.0654
CC1=NN(c2ccccc2)C(=O)/C1=C/C=C/c1ccccc1 | -0.00758
CCc1nc(Nc2ccc3c(c2)OCCO3)c2oc3ccccc3c2n1 | -0.139
COc1ccc(C2Nc3ccccc3C(=O)N2c2ccc(Cl)cc2)cc1Cn1cc([N+](=O)[O-])cn1 (stereo unspecified) | -0.199
COc1cc(NC(=O)c2ccc(S(=O)(=O)N(C)C)cc2)cc(OC)c1OC | 0.924
O=C(Nc1ccccc1C(=O)N1CCOCC1)c1ccc(F)cc1 | -0.431

SMILES | z-score
O=C(c1ccco1)N1CCN(C(=O)C2CCCN(S(=O)(=O)c3cccc4nsnc34)C2)CC1 (stereo unspecified) | -0.472
COC(=O)c1cc(N=CC2=C(O)CC(C)(C)CC2=O)cc(C(=O)OC)c1 | -0.528
O=C(CCCl)Nc1cc(SCCO)cc([N+](=O)[O-])c1 | -0.219
COc1ccc(OC)c(NC(=O)c2ccc(-n3cccn3)nc2)c1 | -0.194
CCc1ccc(C(=O)COC(=O)c2cccc(N3C(=O)c4c(C)nc5ccccc5c4C3=O)c2)cc1 | 0.138
CCOC(=O)CN1C(=O)C(O)(C2CCc3ccccc3C2=O)c2ccccc21 (stereo unspecified) | 0.544
CC(=O)c1c(C)[nH]c(C(=O)NCCc2cccc(C)c2)c1C | 0.204
COc1ccc([N+](=O)[O-])cc1NC(=O)c1ccc(C)o1 | -0.379
O=c1c(Oc2ccccc2Br)c(C(F)(F)F)oc2c(CN3CCCC3)c(O)ccc12 | -0.0912
COc1ccccc1N1CCN(CC(=O)NCC2CCCO2)CC1 (stereo unspecified) | -1.21
COCCn1c(C)cc(C2=NNC(=Nc3ccc(OC)cc3)SC2)c1C | 0.139
CCNC(=O)CSc1nc2cc([N+](=O)[O-])ccc2n1-c1cccc(C(F)(F)F)c1 | -0.0324
COCc1cc(C)nc(Nc2ccccc2C)c1C#N | -0.365
CC(=O)c1cc(F)c(N2CCOCC2)cc1C | -0.22
CC(C(=O)Nc1ccc([N+](=O)[O-])cc1)N1CCN(C/C=C/c2ccccc2)CC1 (stereo unspecified) | -0.146
COc1cc(NC(=O)c2cc(Cl)ccc2Cl)ccc1-c1cc2ccccc2oc1=O | -0.16
CCn1c(CC(=O)Nc2ccc(C)cc2)nnc1SCC(=O)NCCc1ccccc1 | -0.0821
Cc1cc(C)cc(C(=O)n2cnnc2N)c1 | -0.0618
